Test results reported in the supplement of paper PMC11417369.
± gives the standard deviation of the averaged measurements. This is one part of the list.

system: PfAP2-G AP2 domain (GST-tagged); experiment: gcPBM binding intensity (ln(normalized median fluorescence intensity)); higher = stronger DNA binding
Procedure, shortened: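 The highest Masliner-normalised natural-log median intensity across replicate spots of either probe orientation is reported as binding intensity. GST-tagged P. falciparum DNA-binding domains expressed in E. coli were applied for 1 h to an Agilent 4 × 180k array of primer-extended double-stranded 36-bp intergenic genomic probes plus negative controls, and bound protein was detected with Alexa488 anti-GST antibody and scanned at 488 nm.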

Sequence | gcPBM binding intensity (ln)
TATATTCCCTTAATCACACATAAATAAAAAAAAATA [CACACA_site6094] | 10 ± 0.37
ATTTATTAAATAAAAAGTACAAAATAAGAAAGAAGA [XGTACX_site6935] | 11.3 ± 0.79
TTATATATATCTAATTGTACAATATTATGTTCATTA [XGTACX_site7479] | 10.9 ± 0.49
ATATATAATATAATATGTACATAAAATTTTAACATT [XGTACX_site5773] | 11.2 ± 0.67
AAAATAATAATAGGCACACATATATATATATATATA [CACACA_site2058] | 10.1 ± 0.33
TATTTCCTTTTTCTTGTTATTCATGAGAAAAAATGA [CACACA_negctrl_site482] | 10 ± 0.18
GAAATTTTTAATGTGGTGCACAGGAAATTTTTTCTT | 10.5 ± 0.33
AAAAAAAAAAAAACTACACACATACAAATATTTATA [CACACA_site5430] | 9.875 ± 0.035
TACATACATACAGGAGTGCATATATCACAATTATTA | 10.2 ± 0.18
AGTATACTCGGACACACACACACATATATATATATA [CACACA_site5031] | 11.1 ± 0.51
AGTTATATGATTAATACACACAACAAATGTTTCTTC [CACACA_site1092] | 9.82 ± 0.14
AATTTGGTGTGTGTAAAAGTATGTGTCTATATTTAT [GTGCAC_negctrl_site166] | 10.4 ± 0.23
ATGTATGTTTATTACTATTTTGAGAATAGACTATAA [CACACA_negctrl_site1366] | 9.855 ± 0.021
TGCAAAAAATTCCACACACACACACCCATATAAATA [CACACA_site1230] | 10.2 ± 0.2
TCTAAAATAAATAATGCATGTTAAAAAAAAATATAT [TGCATGCA_site562] | 9.87 ± 0.057
ACGACTAAATATATGAGTACATATATATATAAATAT [XGTACX_site7522] | 11.4 ± 0.87
AAGAATCATATTTAAACACACATACAGATATATATA [CACACA_site5787] | 9.78 ± 0.028
CAAATATGTCTTATTCGTACACATATATATATATAT [XGTACX_site8817] | 11.2 ± 0.77
AAAAATTTGGCATACACACACACACCGACACAGACA [CACACA_site4489] | 10.4 ± 0.32
GTGCATATAAGGAAGTGTACGAAAAAAAATATTCCA [XGTACX_site8490] | 11.3 ± 0.79
TTTCTTTATAAATTAATATTCACAACACAAAATATA [CACACA_negctrl_site450] | 10.2 ± 0.26
AAGAAAATAAAAAATAAGCATAATATGATATGATAT [TGCATGCA_negctrl_site196] | 9.64 ± 0.3

Sequence | gcPBM binding intensity (ln)
ATAGAGTCATTCCTCACACACACGCTATATGAATAG [CACACA_site2047] | 10.1 ± 0.11
TTTATTAATAAGAAATGTACACAAAATTATTTCCAA [XGTACX_site5970] | 11.5 ± 0.95
GAGAAATTTATACATACACACATATATATATTATAT [CACACA_site4038] | 10.05 ± 0.071
TATCATGTTTTTATGGTGCATGAAATCACACATTGA | 9.97 ± 0.13
AATACAAACCAAAAAGTAAATACATCAACATGATCA [CACACA_negctrl_site140] | 9.72 ± 0.2
TAATTAAAATTAAGAAGTACATTTTACTTTTAATGC [XGTACX_site5120] | 11.3 ± 0.78
AAAAAATACTTATAAAGTACTAATATATATAAGCAG [XGTACX_site743] | 10.9 ± 0.48
TCCAAATGTTTGCGTTGTACTCTTTTTTTAAAACTA [XGTACX_site5148] | 11.5 ± 1
TACACCATGATACATACACACAGACATATACTCATT [CACACA_site4708] | 10.13 ± 0.028
ATTCCTCCCATGGAATGTACTCATCAAATAAATAAA [XGTACX_site6543] | 11.1 ± 0.84
CCTGAAATTTTATTATGTACATATTATAAAATGATT [XGTACX_site1434] | 11.2 ± 0.82
TGGCACTAAAAAAATAAACACACAGATTTATATAAT [CACACA_site8386] | 9.81 ± 0.18
ATAACCACATAAAATATAATTATATATATATATATA [CACACA_negctrl_site603] | 9.87 ± 0.26
AAAAAAAAAAAAAAAAAAAAAAATATATATATATAT [XGTACX_negctrl_site33] | 10.9 ± 0.43
AAGGAATATATATACATACACACATATATATATATA [CACACA_site1665] | 9.94 ± 0.3
AGTGGATGAGGACATACACACACACCGAAGTTGATA [CACACA_site9132] | 10.9 ± 0.64
AAATTTTCATGTGTTGCATGCTGAACTATTTTATCA [TGCATGCA_site856] | 9.875 ± 0.078
AATAAAAAGGAAAGGTATATGTGTGCCCTTGTGTTA [TGCATGCA_negctrl_site83] | 10.5 ± 0.16
TATTTTTTCCTTTGTTTTTTAAACTATCTTAACTAA [XGTACX_negctrl_site519] | 9.82
AAATAAATAAAAAACACACACAAATAAATAAATATA [CACACA_site2249] | 9.905 ± 0.078
TTTCTATTTCCTTCACATCTTTTCATCTTTTTTTTT [CACACA_negctrl_site1110] | 9.9 ± 0.11
GACTTGAAGAAATAAGTGCAGAGTTTTATTTTAATT [GTGCAC_site9912] | 10.04 ± 0.071
